{"source": "PubChem BioAssay AID686978", "about": "(National Center for Advancing Translational Sciences (NCATS), 2013)", "note": "In all, about 420,000 compounds went through this assay and about 64,000 (15%) were called active. The shares of active, inactive and inconclusive entries below differ from those in the screen. The call rests on the fitted dose curve; in most records, active means well fitted inhibition curve with a large enough effect; inconclusive means small, poorly fitted or top-dose-only effect; inactive means flat fitted curve, though single readings scatter. No potency is given beside an inconclusive call; the fits are too rough. On the % scale 0 is the no-effect control and ±100 the full control effect; potency means the concentration at half of the fitted maximal effect; tags describe the fitted curve by direction and shape.", "data": [{"assay": "qHTS for Inhibitors of human tyrosyl-DNA phosphodiesterase 1 (TDP1): qHTS in cells in absence of CPT; further: nearly all actives have a fitted effect of over 55% in size", "details": "DT40 Tdp1-/- hTDP1 cells, no CPT, ATP luminescence, 48 h; activity change, negative = growth inhibition: at 46.2 µM (top of the series) unless noted", "method_in_brief": "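Compound effects on proliferation are scored in DT40 Tdp1-/-;hTDP1 cells in the absence of CPT. ATP levels (CellTiter-Glo luminescence) are recorded after a ≥48 hr, 37 °C incubation.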", "values": [{"smiles": "CC(C)c1nc(CNC(=O)C2CCC(=O)N(Cc3ccc(Cl)cc3)C2)no1", "note": "(configuration not stated)", "activity change, negative = growth inhibition": "inactive: 16.8%"}, {"smiles": "CCN1CCN(c2ccc(S(=O)(=O)N3CCOCC3)cc2NC(=O)c2ccc(Cl)s2)CC1", "activity change, negative = growth inhibition": "inactive: -3.27%"}, {"smiles": "COC(=O)CN1C(=O)C(C)(C)Oc2ccc(C(=O)Nc3cccc(OC)c3)cc21", "Potency": "inconclusive [inhibitor, single point]"}, {"smiles": "CCN(CC(=O)Nc1cc(C)c(Cl)cc1OC)CC(=O)NC1CCS(=O)(=O)C1", "note": "(configuration not stated)", "activity change, negative = growth inhibition": "inactive: -18.8%"}, {"smiles": "Cc1ccc(-n2c(SCC(=O)NC3CCS(=O)(=O)C3)nc3ccccc3c2=O)cc1C", "note": "(configuration not stated)", "Potency": "inconclusive [inhibitor, single point]"}, {"smiles": "Cc1ccccc1NC(=S)N(CCN1CCCCC1)Cc1ccco1", "Potency": "inconclusive [inhibitor, single point]"}, {"smiles": "Cc1ccc(NC2CCCN(C(=O)CCN3CCOCC3)C2)cc1C", "note": "(configuration not stated)", "activity change, negative = growth inhibition": "inactive: 13.9%"}, {"smiles": "CCOC(=O)c1cnc2cc(C)nn2c1C", "activity change, negative = growth inhibition": "inactive: -16.5%"}, {"smiles": "COc1ccc(OCC(=O)NCC2(N3CCN(C)CC3)CCCCC2)cc1", "activity change, negative = growth inhibition": "inactive: -18.4%"}, {"smiles": "Cc1cc(C(=O)CSc2nnc(-c3ccco3)o2)c(C)n1-c1ccc2c(c1)OCCO2", "Potency": "active: 20.6 µM"}, {"smiles": "CCOC(CCNC(=O)c1cn(C)c(=O)c2c1c1ccccc1n2C)OCC", "Potency": "inconclusive [inhibitor, partial curve]"}, {"smiles": "Cc1nc(SC2CC(=O)N(c3ccc([N+](=O)[O-])cc3)C2=O)nc2c1CCCC2", "note": "(configuration not stated)", "Potency": "inconclusive [inhibitor, single point]"}, {"smiles": "Cc1ccc(-n2nnnc2-c2cccnc2)cc1", "activity change, negative = growth inhibition": "inactive: 6.63%"}, {"smiles": "O=C(c1cc(C2CC2)nn1-c1ccccc1)N1CCN(c2ccccc2O)CC1", "Potency": "active: 16.4 µM"}, {"smiles": "N#Cc1cnc(=S)n(-c2cc(C(F)(F)F)cc(C(F)(F)F)c2)c1N", "Potency": "inconclusive [inhibitor, single point]"}, {"smiles": "CC1(C(=O)Nc2ccc3c(c2)OCO3)Cc2c(-c3ccccc3)ccnc2O1", "note": "(configuration not stated)", "Potency": "inconclusive [inhibitor, single point]"}, {"smiles": "O=C(CN1C(=O)c2ccccc2C1=O)OCCOCCN=C1NS(=O)(=O)c2ccccc21", "activity change, negative = growth inhibition": "inactive: -13.1%"}, {"smiles": "C=CCNC(=O)N1c2ccccc2Sc2ccccc21", "Potency": "inconclusive [inhibitor, single point]"}, {"smiles": "CCOC(=O)C1CCN(C(=O)Nc2ccc3nc(-c4ccco4)c(-c4ccco4)nc3c2)CC1", "Potency": "active: 18.4 µM"}, {"smiles": "O=C1NC(=O)N(Cc2ccccc2)CC1Br", "note": "(configuration not stated)", "activity change, negative = growth inhibition": "inactive: -5.09%"}, {"smiles": "CCOc1ccccc1NC(=O)CSc1ncnc2c1oc1ccccc12", "Potency": "inconclusive [inhibitor, single point]"}, {"smiles": "CC(=O)Nc1ccc(NC(=O)CSc2nnnn2-c2ccc(F)cc2)cc1", "Potency": "inconclusive [inhibitor, single point]"}]}]}
